# Data: PubChem BioAssay AID1645882 (National Center for Advancing Translational Sciences (NCATS), 2021)
# Screen size: about 16,000 compounds; about 120 (0.75%) were called active. Another 4% or so got no clear call; they are omitted. Calls follow the shape of the dose curve; as a rule, active = well fitted inhibition curve with a large enough effect; inconclusive = small, poorly fitted or top-dose-only effect; inactive = no such curve, though single readings can be large or run the other way. The list shows a part of the results.
# Biological target: Rap guanine nucleotide exchange factor 3 (Homo sapiens) (UniProt O95398)
# Test: Validation qHTS for antagonist of cAMP-regulated guanine nucleotide exchange factor 3 (EPAC1); also: nearly all actives have a fitted effect of over 75% in size;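 as to activity change, negative = inhibition: plate controls were DMSO for no effect and ATA control for full effect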
# Conditions: EPAC1 Rap1B-BODIPY-GDP exchange, fluorescence; series mostly up to 150 µM; activity change, negative = inhibition: at the top concentration
# Outline: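 Nucleotide exchange followed as fluorescence loss when BODIPY-GDP leaves Rap1B (480 nm excitation, 540 nm emission), read at 5 min intervals over 30 min. Reaction: 100 nM EPAC1, 250 nM RAP1B-BODIPY-GDP, 50 uM GDP; ATA and DMSO define normalization.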
# Potency is read from the fitted curve at half-maximal effect.
# Chain of UniProt O95398 (O95398 whole entry, looked up): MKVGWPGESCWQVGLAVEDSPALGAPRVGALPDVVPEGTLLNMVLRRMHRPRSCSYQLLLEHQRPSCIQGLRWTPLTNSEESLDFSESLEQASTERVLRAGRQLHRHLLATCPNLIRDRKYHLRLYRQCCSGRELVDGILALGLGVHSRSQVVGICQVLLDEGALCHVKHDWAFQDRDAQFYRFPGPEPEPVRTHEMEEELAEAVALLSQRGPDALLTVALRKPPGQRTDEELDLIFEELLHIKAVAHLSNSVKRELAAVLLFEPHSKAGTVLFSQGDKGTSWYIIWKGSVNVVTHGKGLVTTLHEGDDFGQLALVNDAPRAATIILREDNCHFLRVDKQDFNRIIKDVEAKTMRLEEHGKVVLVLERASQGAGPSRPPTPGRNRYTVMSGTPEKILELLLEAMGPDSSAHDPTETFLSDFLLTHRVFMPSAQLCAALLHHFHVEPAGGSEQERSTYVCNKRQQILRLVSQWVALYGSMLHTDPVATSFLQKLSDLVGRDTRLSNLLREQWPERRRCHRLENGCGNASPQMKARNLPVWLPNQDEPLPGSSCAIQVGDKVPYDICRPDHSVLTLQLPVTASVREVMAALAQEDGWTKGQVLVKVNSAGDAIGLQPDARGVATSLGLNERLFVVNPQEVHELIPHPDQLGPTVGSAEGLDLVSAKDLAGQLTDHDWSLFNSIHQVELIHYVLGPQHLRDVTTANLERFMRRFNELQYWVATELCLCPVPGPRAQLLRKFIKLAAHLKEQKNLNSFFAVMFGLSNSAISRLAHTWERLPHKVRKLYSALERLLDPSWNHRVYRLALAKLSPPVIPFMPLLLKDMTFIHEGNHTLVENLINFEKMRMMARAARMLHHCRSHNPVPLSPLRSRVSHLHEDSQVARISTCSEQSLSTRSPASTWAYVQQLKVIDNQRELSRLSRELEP
Structure (SMILES),"activity change, negative = inhibition",Potency
Cc1cccc(CNc2ncnc3ccc(-c4ccoc4)cc23)c1,inactive: -4.28%,–
Cc1c(C(=O)NN2CCCCC2)nn(-c2ccc(Cl)cc2Cl)c1-c1ccc(Cl)cc1,inactive: 12.6%,–
Cn1cccc1C(=O)N1CCC2(CCCN(c3ccccc3)C2)CC1,inactive: 3.97%,–
O=C1C=C(O)c2ccccc2C1=O,inactive,–
CC1=C2C(=CO[C@H](C)[C@H]2C)C(=O)C(C(=O)O)=C1O,inactive: 15.4%,–
CC(C)NS(=O)(=O)c1cc(C(F)(F)F)ccc1/C=C/C(=O)O,inactive: 8.02%,–
CC(=O)C[C@H]1c2ccccc2S(=O)(=O)N1C1CCCC1,inactive: 21.8%,–
COCCNc1ncnc2ccc(-c3ccc(C(=O)N(C)C)cc3)cc12,inactive: 14.5%,–
O=C(NC1CC1)[C@@H]1C[C@@H](Sc2nc3ccccc3[nH]2)CN1CC1CCCCC1,inactive: -10.3%,–
CCNc1ncc2nc(-c3ccc(OC)cc3)c(=O)n(Cc3cccs3)c2n1,inactive: 0.856%,–
CC(C)NCC(O)COc1ccc(CCOCC2CC2)cc1 (configuration not stated),inactive,–
CC(=O)[C@@]1(O)CC[C@H]2[C@@H]3C[C@H](C)C4=CC(=O)C=C[C@]4(C)[C@@]3(F)[C@@H](O)C[C@@]21C,inactive: 15.5% [at 75.8 µM],–
CC(=O)Nc1ccc(OC(=O)c2ccccc2OC(C)=O)cc1,inactive: 9.18%,–
c1ccc2sc(SN3CCOCC3)nc2c1,inactive: -6.18%,–
COc1cccc(-c2cc3c(c(OC)c2)OCCN(Cc2cccn2-c2ccccn2)C3)c1,inactive: 2.77%,–
CCc1nc(N)nc(N)c1-c1ccc(Cl)cc1,inactive,–
N#Cc1cccc(-c2cc(-n3ccnc3)ncn2)c1,inactive: 23.1%,–
COC(=O)CCCOc1ccc(Cl)cc1Cl,inactive: 8.01%,–
Cc1ncc2c(c1CNC(=O)c1ccc3c(c1)OCO3)CCN(C(=O)c1cc3ccccc3n1C)C2,inactive: 6.07%,–
O=C(c1cccc(F)c1)N1CCC2(CCCN(c3ccccc3)C2)CC1,inactive: 1.21%,–
FC(F)(F)c1ccccc1-c1cncnc1NCCN1CCOCC1,inactive: 9.57%,–
COc1ccc(OC)c(CN2C[C@H](Sc3ccc(F)cc3)C[C@H]2C(=O)N(C)C)c1,inactive: 10.3%,–

Structure (SMILES),"activity change, negative = inhibition",Potency
CC(=O)NC(=O)c1ccccc1O,inactive: 4.91%,–
COc1c2c(cc3c1C(c1c(O)c4ccccc4oc1=O)N(C)CC3)OCO2 (configuration not stated),inactive: -11.8%,–
C1CCC(C(CC2CCCCN2)C2CCCCC2)CC1 (configuration not stated),inactive: 18%,–
COCCn1c(=O)c(-c2ccc(OC)cc2)nc2cnc(N3CCNCC3)nc21,inactive: 12.2%,–
CC(C)N(c1ccc(C=O)cc1)C(C)C,inactive: 5.8%,–
C[C@@H]1CN(Cc2ccc3c(c2)CN(Cc2cn[nH]c2-c2ccccc2)CCO3)C[C@H](C)O1,inactive: 6.18%,–
O=c1cc(CO)occ1O,inactive,–
CS(=O)(=O)Nc1cccc(-c2cncnc2Nc2ccccc2)c1,inactive: 1.21%,–
COc1cccc(CN2CCC(n3cc(C(=O)NC4CCCC4)nn3)CC2)c1O,inactive: 22%,–
COc1ccccc1CNc1nc(-c2ccc3c(c2)OCO3)nc2ccccc12,inactive: -9.28%,–
CCNc1ncc2ncc(=O)n(Cc3cccs3)c2n1,inactive: -7.28%,–
CC1(C)CC(C(=O)N2CCOc3ccc(CN4CCC(Oc5cccnc5)CC4)cc3C2)CCO1 (configuration not stated),inactive: 16.1%,–
NC1CCN(c2cccc(Cl)n2)CC1,inactive,–
CC1C(=O)N(C)C(=O)c2nc[nH]c21 (configuration not stated),inactive: 14% [at 75.8 µM],–
CCSc1nnc(C(C)NS(=O)(=O)c2cccc(Cl)c2C)n1C (configuration not stated),inactive: 14.6%,–
CCCCCCCCCCCCC/C=C/[C@@H](O)[C@H](CO)NCCCCCCCC,inactive: 3.05% [at 15.3 µM],–
CC1(C)C=Cc2c(cc3occ(-c4ccc5c(c4)OCO5)c(=O)c3c2O)O1,inactive: -5.41%,–
C[N+]1(Cc2ccccc2)CCC(C(=O)OCC2CCCC2)CC1 (configuration not stated),inactive: 36.6%,–
O=C1[C@H]2[C@H](C=CC[C@H]2C(=O)N2CCOCC2)CCN1Cc1ccc(Cl)c(Cl)c1,inactive: 8.84%,–
COc1ccc2c(c1)OC/C(=C/c1ccc(OC)c(OC)c1)C2=O,inactive: 4.4%,–
COc1ccccc1-c1nc(NCc2cccnc2)c2ccccc2n1,inactive: 8.57%,–
O=C(O)CCNC(=O)c1ccc(N=Nc2ccc(O)c(C(=O)O)c2)cc1,inactive: 17.6%,–

Structure (SMILES),"activity change, negative = inhibition",Potency
O=C(O)CCC(=O)OC[C@@H](NC(=O)C(Cl)Cl)C(O)c1ccc([N+](=O)[O-])cc1 (some centres not stated),inactive: 21.6%,–
COCc1c(C(=O)N2CCN(C3CCCC3)CC2)cnn1-c1nccc(-c2cc(C)sc2C)n1,inactive: -29.7%,–
COc1cccc2oc(-c3ccccc3)cc(=O)c12,inactive: 9.58%,–
O=CN1CCc2c([nH]c3ccccc23)C1c1cccc2cccnc12 (configuration not stated),inactive: -9.31%,–
CCOC(=O)N1CCN(/[N+]([O-])=N/Oc2ccc([N+](=O)[O-])cc2[N+](=O)[O-])CC1,inactive: 1.56% [at 75.8 µM],–
COc1cc(C(=O)NCc2ccc(OCCN(C)C)cc2)cc(OC)c1OC,inactive,–
CCCN1CCCC[C@H]1C(=O)Nc1c(C)cccc1C,inactive: 22.4%,–
COc1ccccc1CNc1ccnc(-c2ccccc2C(F)(F)F)n1,inactive: -7.02%,–
COc1cc(NCc2ccc3nc(N)nc(N)c3c2C)cc(OC)c1OC,inactive: 15.2%,–
CSc1ncccc1C(=O)NCCN1Cc2ccccc2OC(c2ccccc2F)C1 (configuration not stated),inactive: -10.9%,–
Cc1ccc(S(=O)(=O)N[C@@H](Cc2ccccc2)C(=O)CCl)cc1,inactive: 24.2% [at 75.8 µM],–
COc1cccc(-c2ccc3ncnc(NCc4ccccc4OC)c3c2)c1,inactive: -20.8%,–
Cc1cc(C(C)(C)C)c(O)c(C(C)(C)C)c1,inactive,–
COc1ccc(-c2cc(=S)ss2)cc1,inactive: 2.77%,–
COc1ccc(S[C@@H](CCN2CC[C@H](NC(=O)OCc3ccccc3)CCC2=O)c2ccccc2)cc1,inactive: -15.2%,–
CN(C)c1ccc(-c2cncnc2Nc2ccc(F)cc2)cc1,inactive: -8.95%,–
COc1ccc2c(c1)OCC(Cc1ccc(OC)c(O)c1)C2=O (configuration not stated),inactive: 2.17%,–
CN(CCO)C(=O)c1cn(C2CCN(Cc3c(F)cccc3Cl)CC2)nn1,inactive: 18.1%,–
N[C@@H](C(=O)O)c1ccc(C(=O)O)c(O)c1,inactive: -6.82%,–
CN/C(=C\[N+](=O)[O-])NCCSCc1ccc(CN(C)C)o1,inactive,–
C=CCSSSCC=C,inactive: 22.7%,–
C/C1=C2N=C(/C=C3N=C(/C(C)=C4\[N-]C(C(CC(N)=O)C4(C)CCC(=O)NCC(C)OP(=O)([O-])OC4C(CO)OC(n5cnc6cc(C)c(C)cc65)C4O)C4(C)N=C1C(CCC(N)=O)C4(C)CC(N)=O)C(CCC(N)=O)C\3(C)C)C(CCC(N)=O)C/2(C)CC(N)=O.[CH3-].[Co+3] (configuration not stated),–,active: 50.1 µM

Structure (SMILES),"activity change, negative = inhibition",Potency
O=C(O)[C@@H]1CN[C@@H](C(=O)O)C1,inactive: 6.31%,–
OCCN1CCN(Cc2ccc3c(c2)CN(Cc2cccn2-c2ccccn2)CCO3)CC1,inactive: 14.6%,–
C#CCN[C@@H]1CCc2ccccc21,inactive: 8.65%,–
C[C@](N)(COP(=O)(O)O)C(=O)O,inactive: 3.08%,–
Cn1c(=O)[nH]c2ncn(C)c2c1=O,inactive,–
Cc1nc2cncnc2n(C2CC2)c1=O,inactive: 7.75%,–
COc1ccc2ccccc2c1CN1CCCC(n2cc(C(=O)N3CCCC3)nn2)C1 (configuration not stated),inactive: 16.4%,–
COc1ccccc1CN1CC[C@@]2(CCCN(C(=O)c3cccn3C)C2)C1,inactive: 28.1%,–
CCOc1ccc(NS(=O)(=O)c2ccc(N)cc2)nn1,inactive: 16.7%,–
Cc1c(C(=O)N2CCN(C)CC2)sc2ncnc(NCC3(c4ccccc4)CCOCC3)c12,inactive: 2.75%,–
C[C@@H]1OC(OC2C(OC3CC[C@@]4(C)C5CC=C6C7CC(C)(C)CC[C@@]7(C(=O)O)CCC6(C)C5(C)CCC4[C@]3(C)CO)OCC(O)C2O)C(O)C(O)C1O (some centres not stated),inactive: 11.2%,–
Cn1c(=O)cnc2cnc(OCc3ccccc3)nc21,inactive: 5.54%,–
COCCn1c(=O)c(-c2ccc(Cl)cc2)nc2cncnc21,inactive: -3.65%,–
N#C/C(=C\c1ccc(O)c(O)c1)C(=O)OCCc1cccs1,–,active: 39.8 µM
COc1ccc2[nH]cc(CCNc3ncnc4ccc(-c5ccccc5CN(C)C)cc34)c2c1,inactive: 6.39%,–
C1COC(NC(C2CC2)C2CC2)=N1,inactive,–
N#Cc1cccc(-c2cc(NCc3cccnc3)ncn2)c1,inactive: 7.18%,–
O=c1cc(-c2ccc(O)cc2O)oc2ccccc12,inactive: 13.9%,–
O=c1c(-c2ccc(Cl)cc2)nc2cncnc2n1Cc1ccc(F)cc1,inactive: 15.9%,–
COc1ccc(F)c(CN2CCC3(CCC(CNC(=O)c4ccn(C)n4)O3)CC2)c1 (configuration not stated),inactive: 15%,–
O=C(CN1Cc2ccccc2OC(c2ccsc2)C1)N1CCC(c2nc3ccccc3[nH]2)CC1 (configuration not stated),inactive: -1.79%,–
OC[C@H]1O[C@@H](n2cnc3c(NC4CCCC4)ncnc32)[C@H](O)[C@@H]1O,inactive,–

Structure (SMILES),"activity change, negative = inhibition",Potency
COc1ccc(/C=C/C(=O)c2ccc(O)cc2O)cc1,inactive: 4.11%,–
CN1c2cc(O)c(N=NC(N)=O)cc2CC1S(=O)(=O)O (configuration not stated),inactive: 5.06%,–
COc1cc(=O)n(C)c2c(OCC3OC(C)(C)OC3(C)C)cccc12 (configuration not stated),inactive: 0.989%,–
C[N+](C)(C)CC=O,inactive: 2.53% [at 75.8 µM],–
N#Cc1ccc(CN2CC3(CCN(C(=O)c4cccc(F)c4)CC3)C2)cc1,inactive: -6.56%,–
C/C=C(\C)C(=O)NCCN1Cc2ccccc2OC(c2ccccc2OC)C1 (configuration not stated),inactive: 0.312%,–
COc1ccc(NC(=O)N2CCC3(CC2)CCN(S(C)(=O)=O)CC3)cc1,inactive: 17.4%,–
CC(=O)c1ccc(F)c(-c2cc(C)cc3c2OC(CNC(=O)C[C@@H]2C[C@@H](C)NC(=S)N2)C3)c1 (some centres not stated),inactive: 14.4%,–
CCC1(C2CCN(C(=O)c3ccc4ccccc4c3)CC2)NC(=O)N(CCc2scnc2C)C1=O (configuration not stated),inactive: 11.6%,–
CC(C)=CCC1=C(O)[C@](O)(CC=C(C)C)C(=O)C(C(=O)CC(C)C)=C1O,inactive: -3.17%,–
CC(C)O,inactive: 0.667%,–
CCCS(=O)(=O)NCc1c(C)ncc2c1CCN(C(=O)/C=C/c1ccc(F)cc1F)C2,inactive: 5.61%,–
O=S(=O)(c1ccccc1)N1CCC2(CCCN(Cc3nccs3)C2)CC1,inactive: 1.2%,–
COC(=O)[C@@H]1CCCN1Cc1ccc2c(c1)CN(Cc1coc3ccc(C)cc3c1=O)CCO2,inactive: 3.2%,–
O=C1CS(=O)(=O)N(Cc2cccc(F)c2)c2ccc(Br)cc21,inactive: -18.5%,–
COC(=O)Nc1nc2ccc(Sc3ccccc3)cc2[nH]1,inactive,–
CCCn1c(=O)[nH]c(=O)c2[nH]cnc21,inactive,–
COc1ccc(-c2nc3cnc(OC)nc3n(Cc3ccc(F)cc3)c2=O)cc1,inactive: 22.3%,–
Oc1c(I)cc(Cl)c2cccnc12,inactive,–
